# Where “and” joins values, the source holds several entries; their conditions need not be identical. Equal entries are not always repeated. About 150 (0.038%) of roughly 390,000 compounds were called active. Inconclusive results (about 3%) are left out. The call rests on the fitted dose curve; in most records, active means well fitted inhibition curve with a large enough effect; inconclusive means small, poorly fitted or top-dose-only effect; inactive means no such curve, though single readings can be large or run the other way. The list shows a part of the results, in another mix than the full data. Where a structure was tested more than once in an assay, its records may differ in their call.
# Target: Regulator of G-protein signaling 4 (Homo sapiens) (UniProt P49798)
# Test: Inhibitors of Regulator of G Protein Signaling (RGS) 4: qHTS; further: nearly all actives have a fitted effect of over 75% in size
# Conditions: Transcreener GDP fluorescence polarization, RGS4-accelerated GTP hydrolysis; series mostly up to 114 µM; activity change, negative = inhibition: at the top concentration
# How it was run: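 MLSMR compounds (23 nl, pin-transferred) preincubated 10 min at room temperature with a 500nM (2x) first reagent, then RGS4 at 900nM (2x) plus Transcreener GDP mix added; fluorescence polarization (620/688 nm) read before and after 90 min at 30 °C.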
# On the % scale 0 is the no-effect control and ±100 the full control effect; potency means the concentration at half of the fitted maximal effect.
# Sequence of UniProt P49798 (P49798 whole entry, looked up): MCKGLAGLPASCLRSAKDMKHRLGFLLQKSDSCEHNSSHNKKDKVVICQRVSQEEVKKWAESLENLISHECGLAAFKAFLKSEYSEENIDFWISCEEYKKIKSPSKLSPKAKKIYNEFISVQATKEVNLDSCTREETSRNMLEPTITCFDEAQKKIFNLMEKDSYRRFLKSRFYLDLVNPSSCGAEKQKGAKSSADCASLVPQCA
Compound,"activity change, negative = inhibition",Potency
Cc1ccccc1N1C(=O)c2cc(S(N)(=O)=O)c(Cl)cc2NC1C (centres undefined),inactive: -5.83%,–
O=C1C2C=CC=CC2=NC(=S)N1CCN1CCC(=C(c2ccc(F)cc2)c2ccc(F)cc2)CC1 (centres undefined),inactive: 16.2% [at 56.9 µM],–
CNCCC(Oc1ccccc1OC)c1ccccc1 (centres undefined),–,inactive
CC1CNCCN1S(=O)(=O)c1cccc2cnccc12 (centres undefined),–,inactive
CC1CN(S(=O)(=O)c2cccc3cnccc23)CCN1 (centres undefined),inactive: 9.54% [at 56.9 µM],–
O=C(NCc1ccc(Cl)cc1)C1CCN(S(=O)(=O)c2ccccc2)CC1,inactive: 25.3%,–
Nc1ncnc2c1ncn2C1O[C@H](CO)[C@@H](O)[C@@H]1O (some centres undefined),inactive: 22.1%,–
CN(C)c1ccc(N=C/C=C2\N(C)c3ccccc3C2(C)C)cc1,inactive: -16% [at 11.4 µM],–
O=C(O)COc1ccc(OCCNC[C@@H](O)COc2ccccc2)cc1,inactive: 63.4% [at 56.9 µM],–
S=C(S)O[C@@H]1C[C@@H]2C[C@H]1[C@@H]1CCC[C@H]21,inactive: -161% [at 56.9 µM],–
NC(=O)C(c1ncc(C(F)(F)F)cc1Cl)c1c(Cl)cccc1Cl (centres undefined),inactive: 55.7%,–
Cc1ccc(CS(=O)(=O)c2ncc(Cl)c(C(=O)Nc3nnc(C(C)C)s3)n2)cc1,inactive: -43%,–
N#C/C(=C\C1=C(N2CCOCC2)C(=C\c2ccc(Cl)cc2)/CC1)C(=O)Nc1ccccc1F,inactive: -21.5%,–
CCOc1ccc(OCCSc2nnnn2C2CCCCC2)cc1,inactive: 55.9%,–
OCc1cc(C(O)CNCCCCCCOCCCCc2ccccc2)ccc1O (centres undefined),inactive: 18%,–
CC1CCC(C(C)C)C(OC(=O)Cn2c(-c3ccc(Br)cc3)[n+](C)c3ccccc32)C1 (centres undefined),inactive: -16.4%,–
COC(=O)C1=C[C@@H](C(=O)OC)C2C3=C(C(=O)[C@]2(CC(C)C)NC(=O)c2ccccc2)[C@H](C)n2c(=O)n(-c4ccccc4)c(=O)n2[C@@H]3C1 (some centres undefined),inactive: 5.21%,–
O=C(NCCCO)c1ccc2nc(-c3ccco3)c(-c3ccco3)nc2c1,inactive: -50.6%,–
Cc1ccc2c(c1)N(CCCC(=O)Nc1cccc(C(F)(F)F)c1)C(=O)CO2,inactive: 9.98%,–
COc1ccccc1N1CCN(C2CCCN(C(=O)c3ccoc3)C2)CC1 (centres undefined),inactive: 71.9%,–
O=c1c2ccccc2ncn1-c1ccc(Cl)cc1,inactive: -13.3%,–
C[C@@H](NC(=O)/C(C#N)=C/c1ccc(O)c(O)c1)c1ccccc1,inactive: 11%,–
COc1cccc(CNc2ccc3nc(-c4ccc(N)cc4)c(OC)n3n2)c1,inactive: -22% [at 56.9 µM],–
CC[n+]1c(/C=C2/C=C(C)CC(C)C2)sc2ccccc21 (centres undefined),inactive: -38.1% [at 11.4 µM],–
O=[N+]([O-])c1ccc2c(c1)S(=O)(=O)C=C2,–,active: 21.2 µM
CC(=O)SCC[N+](C)(C)C,–,inactive

Compound,"activity change, negative = inhibition",Potency
O=C1NCN(c2ccccc2)C12CCN(CCCC(c1ccc(F)cc1)c1ccc(F)cc1)CC2,–,inactive
CCOc1cccc(C(c2c(C)n(C)n(-c3ccccc3)c2=O)c2c(C)n(C)n(-c3ccccc3)c2=O)c1OC,inactive: -12.2%,–
O=C(Nc1ccc(C(=O)Nc2ccc(C(=O)Nc3ccc(S(=O)(=O)O)c4cc(S(=O)(=O)O)cc(S(=O)(=O)O)c34)cc2)cc1)Nc1ccc(C(=O)Nc2ccc(C(=O)Nc3ccc(S(=O)(=O)O)c4cc(S(=O)(=O)O)cc(S(=O)(=O)O)c34)cc2)cc1,inactive: 31.7% [at 56.9 µM],–
CC(C)COCC(CN(Cc1ccccc1)c1ccccc1)N1CCCC1 (centres undefined),–,inactive
CC1(C)C2CCC13CS(=O)(=O)NC3C2 (centres undefined),inactive: -5.56%,–
Cc1[nH]c(=O)c(C#N)cc1-c1ccncc1,–,inactive
CCc1nnc(NC(=O)C2CCC2)s1,inactive: 54.1%,–
O=c1c2ccccc2sn1-c1ccc(S(=O)(=O)N2CCCCC2)cc1,inactive: -137%,–
N#Cc1ccc(N=c2ssnc2Cl)cc1,inactive: -119%,–
Cc1c(C)[n+](=O)c2c(n1[O-])CCCCC2,inactive: 57.1%,–
NS(=O)(=O)c1cccc2c1c([N+](=O)[O-])cc1nc(O)c(O)nc12,inactive: -14.6%,–
CC(C)c1c(C(=O)N/N=C/c2cccc(OCc3ccc(F)cc3)c2)nnn1-c1nonc1N,inactive: 58.2%,–
CN1CCc2ccccc2Cc2[nH]c3ccccc3c2CC1,inactive: 9.13%,–
CCn1cc(CCC(=O)NCc2ccc(F)cc2)c2ccccc21,inactive: -18.1%,–
COc1ccc2[nH]c(S(=O)Cc3ncc(C)c(OC)c3C)nc2c1 (centres undefined),–,inactive
CN1CCC(=C2c3ccccc3CC(=O)c3sccc32)CC1,–,inactive
COc1ccccc1N1CCN(CC(O)COc2cccc3ccccc23)CC1 (centres undefined),–,inactive
CC(C)(C)n1nc(-c2ccc(Cl)cc2)c2c(N)ncnc21,inactive: 22.4%,–
NC(=O)C1CCN(c2oc(/C=C/c3ccccc3)nc2S(=O)(=O)c2ccccc2)CC1,inactive: 60.5%,–
CSc1ccc(C(=O)c2[nH]c(=O)[nH]c2C)cc1,inactive: -31.7%,–
CC(N)(Cc1ccc(O)c(O)c1)C(=O)O (centres undefined),–,active: 10.6 µM
COc1cc2ncc(-c3ccccc3)nc2cc1OC,inactive: 440% [at 56.9 µM],–
Cc1cc(=O)oc2cc(OCC(=O)NCCN3CCOCC3)c(Cl)cc12,inactive: 59.5%,–
NC12CC3CC(CC(C3)C1)C2,inactive: -26.2%,–
O=C(O)c1cc(O)c2c(c1)[C@@H]([C@H]1c3cc(C(=O)O)cc(O)c3C(=O)c3c(O[C@@H]4O[C@H](CO)[C@@H](O)[C@H](O)[C@H]4O)cccc31)c1cccc(O[C@@H]3O[C@H](CO)[C@@H](O)[C@H](O)[C@H]3O)c1C2=O,inactive: -120%,–
Cc1ccc(NC(=O)CCC(=O)Nc2nnc(C3CCCCC3)s2)cc1,inactive: 55.4%,–

Compound,"activity change, negative = inhibition",Potency
CCCCCCCCCCCCCCCC(=O)OC(CC(=O)O)C[N+](C)(C)C (centres undefined),–,inactive and active: 18.9 µM
COc1cccc(NC(=O)c2ccc3c(c2)C(=O)N(CC2CCCO2)C3=O)c1 (centres undefined),inactive: 63.7%,–
C=CC[C@H](N)C(=O)O,inactive: -7.02% [at 56.9 µM],–
CCCCCCCCCCC1=C(C)C(=O)C(OC)=C(OC)C1=O,inactive: 150% [at 56.9 µM],–
CN(Cc1ccco1)S(=O)(=O)c1nnc(NC(=O)c2ccccc2)s1,inactive: 8.97%,–
CCOC(=O)C(C)(C)Oc1ccc(Cl)cc1,–,inactive
c1cnc2c(c1)ccc1cccnc12,inactive: -3.4%,–
CCc1cc2c3c(c(=O)oc2cc1OC(C)C(=O)O)CCCC3 (centres undefined),inactive: 84.1%,–
CC(C)NC[C@H](O)COc1ccc(CC(N)=O)cc1,–,inactive
CCC(NC(C)C)C(O)c1ccc(O)c(O)c1 (centres undefined),inactive: -4.7%,–
O=C(N/C(=C/c1ccccc1)C(=O)N1CCCCCC1)c1ccccc1,inactive: 2.23%,–
N[C@H](CO)C(=O)O,inactive: 8.08% [at 56.9 µM],–
O=C1Cc2cc(CCN3CCN(c4nsc5ccccc45)CC3)c(Cl)cc2N1,–,active: 16.8 µM
O=C(O)CCC/C=C\C[C@@H]1[C@@H](/C=C/[C@@H](O)COc2cccc(Cl)c2)[C@H](O)C[C@@H]1O,inactive: 240% [at 56.9 µM],–
Cc1ccc(-n2nnnc2SCC(=O)N(CC(C)C)c2c(N)n(CC(C)C)c(=O)[nH]c2=O)cc1,inactive: 76.7%,–
COc1ccc(NC(=O)Cn2nnc(C(=O)NCc3ccco3)c2N)c(OC)c1,inactive: -23.9%,–
CC(=O)[C@H]1CC[C@H]2[C@@H]3CC=C4C[C@@H](O)CC[C@]4(C)[C@H]3CC[C@]12C,inactive: 15.7%,–
CCOCCCNC(=O)C(NC(=O)C1CCC(=O)N1)c1ccc(C)cc1 (centres undefined),inactive: 63.6%,–
Oc1ccc(NCc2ccccc2OCc2ccccc2)cc1,inactive: -52%,–
CC(C)c1ccc2c(c1)c(SC(C)(C)C)c(CC(C)(C)C(=O)O)n2Cc1ccc(Cl)cc1,inactive: -20.3%,–
C[C@H]1C=C(C(=O)NCc2nc3ccccc3[nH]2)O[C@@H](OCCCCO)C1,inactive: -9.88%,–
COc1ccccc1NC(=O)Cn1c(=O)sc2ccccc21,inactive: 56.3%,–
O=c1[nH]c2ccccc2n2c(-c3ccccc3)nnc12,inactive: -122%,–
CCOC(=O)N1CCC(NS(=O)(=O)c2cc3c(cc2C)NC(=O)CO3)CC1,inactive: 65.6%,–
Nc1ncnc2c1ncn2C1CCCO1 (centres undefined),inactive: 5.23%,–
CCS(=O)(=O)N1CCC[C@H]2CN3CCc4cc(OC)ccc4[C@@H]3C[C@@H]21,inactive: -56.1% [at 56.9 µM],–

Compound,"activity change, negative = inhibition",Potency
O=C(Nc1cc(S(=O)(=O)N2CCCCC2)ccc1O)c1ccccc1NS(=O)(=O)c1ccc(F)cc1,inactive: -14.3%,–
O[C@@H]1[C@@H](O)C=C2CCN3Cc4cc5c(cc4[C@H]1C23)OCO5 (some centres undefined),inactive: 16%,–
Cn1c2ccccc2c2cc(/C=N/NC(=O)c3ccccc3F)ccc21,inactive: 56.9%,–
CCOC(=O)C1CCCN(C(=O)c2cc3cc(Br)ccc3oc2=O)C1 (centres undefined),inactive: 65.8%,–
Cc1ccc(NC(=O)C2CCN(S(=O)(=O)c3ccc4c(c3)NC(=O)CO4)CC2)cc1,inactive: 65.6%,–
CC1=C(/C=C/C(C)=C/C=C/C(C)=C\C(=O)O)C(C)(C)CCC1,–,inactive
CSc1ccc2c(c1)N(CCC1CCCCN1C)c1ccccc1S2 (centres undefined),–,inactive
OCC[C@H]1C[C@H](O)[C@@H](O)[C@]2(CCc3ccccc3CO2)O1,inactive: 26%,–
NC(CS(=O)O)C(=O)O (centres undefined),inactive: -19.7%,–
COC(=O)/C=C1\SC(=NC(=O)c2ccc(OC)cc2)NC1=O,inactive: -40.1%,–
C/C=C/c1ccc(OCC(=O)NCc2ccccc2OC)c(OC)c1,inactive: 54.1%,–
Cc1cc(C)c2c(CC(=O)NN(C)C)coc2c1,inactive: 79.6%,–
CCCCNc1c(C(=O)OCC)c(C)nc2c1cnn2CC,–,inactive
CN(Cc1ccco1)S(=O)(=O)c1nnc(NC(=O)c2ccccc2Cl)s1,inactive: -18.1%,–
CC1=C(/C=C/C(C)=C\C=C\C(C)=C\C(=O)O)C(C)(C)CCC1,inactive: 90% [at 56.9 µM],–
CCCN(CCC)CCCNC(=O)c1cc2c(-c3ccc(OC)c(OC)c3)nn(C)c2s1,inactive: 22.3%,–
COc1cc(C2CC(=O)C=C(O)C2)cc(OC)c1OC (centres undefined),inactive: 54.8%,–
O=C1c2ccsc2SCCN1Cc1c(Cl)cccc1Cl,inactive: 153%,–
C#CCn1c(=O)c2c(ncn2C)n(C)c1=O,inactive: -9.65%,–
COc1ccc(C(=O)N2CC3(C)CC2CC(C)(C)C3)cc1OC (centres undefined),inactive: 65.1%,–
N#C/C(=C\c1ccc(O)c(O)c1)C(=O)NCc1ccccc1,inactive: -8%,–
CCN(CC)C(=O)CSC1=C(C#N)C(c2ccco2)C(C(=O)OCCOC)=C(C)N1 (centres undefined),inactive: 21.4%,–
CCN(c1nc(N)c(C(=O)N=C(N)N)nc1Cl)C(C)C,inactive: 9.22%,–
CC(=O)c1cccc(NC(=O)Cn2c(=O)oc3cc(S(=O)(=O)N4CCCC4)ccc32)c1,inactive: -27.6%,–
CSc1ccccc1C(=O)NCc1ccccc1C,inactive: 55.3%,–
O=C(NCc1cccc(Cl)c1)C1CCCN(c2ncnc3c2nc2n3CCCCC2)C1 (centres undefined),inactive: 66.1%,–

# Reference: PubChem BioAssay AID504845 (National Center for Advancing Translational Sciences (NCATS), 2011)
